Experimental data: patent publication US20230135471A1, “UBIQUITIN VARIANTS WITH IMPROVED AFFINITY FOR 53BP1” (Integrated DNA Technologies, Inc., priority 2021, published 2023)
Positions count from the first letter of the chain named. Names and notes keep the numbering of the source. “Also recorded” adds a separate entry of the source.

How the values were obtained:
fragment of 53BP1 = fragment of 53BP1 (Homo sapiens, UniProt Q12888); experiment: BLI steady-state response, one site-specific binding fit, fold change in affinity (KA ratio) versus reference variant; conditions: for benefit to affinity when added to a base of CM113: FIG. 9C
fragment of 53BP1, sequence (Q12888 1484-1603, looked up): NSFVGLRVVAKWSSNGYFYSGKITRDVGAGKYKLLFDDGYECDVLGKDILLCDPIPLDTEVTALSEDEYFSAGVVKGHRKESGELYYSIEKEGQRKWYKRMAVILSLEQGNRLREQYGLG
From the text: Testing of additional combinations of mutations identified variants with improved affinity over the previous best variant, CM1. In order to further validate the amino acids changes identified in the two-hybrid screen as candidates for improving the affinity of our Ubvs for 53BP1, a subset of the top hits from the screen were individually added to i53, the results of this screen are shown in FIG. 7. For graphs in this invention disclosure labeled as “Fold change in affinity”, affinity is graphed as the association constant (KA) of the ubiquitin variant being tested divided by the KA of the reference ubiquitin variant, typically the base construct upon which further mutations are stacked as determined by calculating each affinity for binding a fragment of 53BP1 (Table 6) using biolayer interferometry (BLI). The BLI steady-state response versus 53BP1 fragment concentration was plotted in prism to calculate the Kd using a one site-specific binding nonlinear fit model. […] In order to validate if CM1 was the best starting combination of mutations for additional stacking, the contribution of each of the 9 mutations present in CM1 relative to i53 was analyzed and is shown in FIG. 8. […] Additional mutations were then added to CM1 either alone or in combination to determine if the affinity could be further improved.
Testing of additional mutations identified a variant with improved affinity over that of the previously described CM455. In order to determine if the amino acid change made at position 2 (L2M) in CM455 relative to i53 was the optimal amino acid change at that position, we screened additional amino acid changes for their effect on the affinity for binding 53BP1. The fold change in affinity is measured as the association constant (KA) of the ubiquitin variant being tested, divided by the KA of the reference ubiquitin variant (CM489), as determined by calculating each affinity for binding a fragment of 53BP1 using biolayer interferometry (BLI). The BLI steady-state response versus 53BP1 fragment concentration was plotted in prism to calculate the Kd using a one site-specific binding nonlinear fit model. […] Therefore, switching from L2M to L2I in CM455 may result in a ubiquitin variant (CM487) with improved ability to enhance rates of HDR.

[1] = system: HDR at a Cas9 cut site in SERPINC1 in HEK293 cells; experiment: HDR at SERPINC1 Cas9 cut site measured by EcoR1 cleavage; type: cell-based, human; conditions: FIG. 10B
Procedure: The dashed line indicates the level of HDR with no Ubv added.
To narrow down which variant may have the best activity in cells CM138, CM142, CM143, CM147, CM149, CM158 were selected for additional testing. The 53BP1-binding deficiency mutant amino acid substitutions (P69L and L70V) were added to CM142, CM143, CM147, CM149, and CM158 and the effect on affinity was measured using BLI^11. […] CM142 and CM142-DM (CM203) were also tested for their ability to improve the rate of HDR in cells (FIG. 10B).

[2] = system: HDR at a Cas9 cut site in SERPINC1 in HEK293 cells; experiment: Perfect HDR (6 nt EcoR1 insert) at SERPINC1 Cas9 cut site, Ubv protein nucleofected with Cas9 RNP, measured by NGS; type: cell-based, human
From the text: In order to test the effects of the improved affinity of the combination mutant Ubvs for 53BP1 on HIDR, i53, CM1, and CM7 Ubvs were purified and used for testing in human cells (Table 3). The Ubvs were delivered alongside Cas9 V3 (JDT) RNP targeting a site in SERPINC1 with single stranded Alt-R HIDR Donor Oligoes (JDR) to introduce an EcoR1 cut site sequence (GAATTC) at the Cas9 cut site upon successful HIDR (Table 5, see methods described below).
Genome editing was mediated via IDT Alt-R Cas9 ribonucleoprotein (RNP) complexes delivered by Lonza nucleofection in concert with single-stranded oligodeoxynucleotide (ssODN) HDR repair templates. The specific repair event was the insertion of the 6-nt EcoR1 sequence (5′-GAATTC-3′) directly at the canonical Sp Cas9 cut site (between bases 3 and 4 in the 5′-direction from the PAM sequence). HDR complexes were formed with a nuclease-specific guide for the SERPINC1 gene (Table 5). HDR template consisted of a chemically modified ssODN synthesized as IDT Alt-R HDR Donor Oligos with the Alt-R modification. […] HDR was measured by NGS.
To determine if CM455 is able to enhance rates of HDR, we tested its ability to improve rates of HDR measured by introduction of an EcoR1 cut site sequence at SERPINC1 as described in Example 3 with the exception that editing was measured using next generation sequencing.

B1: CM142: stacked-mutation ubiquitin variant where X1 is not M; best tolerance for DM mutations (protein)
chain: YLIFVRMLTGKMIELEVEPSDTIENIKAKIQDHEGIPLDQQRLTFQGKLLEDGRTLSDYNLLIDPKKMPLLRMQ
Fragment of 53BP1; FIG. 10A
  tolerance of affinity (Ka) for the DM mutations (P69L, L70V): best tolerance for the DM mutations
[1]
  benefit to rate of HDR compared with i53: significantly increased benefit to HDR over i53

B2: CM487: CM455 switched from L2M to L2I (Q2I relative to WT ubiquitin) (protein)
chain: B1 chain with L2I, L62T, D64S, K66E, P69A, L70V
Fragment of 53BP1; relative to CM489 (leucine at position 2), FIG. 13
  fold change in affinity for position 2 variants of CM455: higher affinity than the L2M of CM455; also recorded: improved affinity beyond that of CM455

B3: CM455: P62T and L69A mutations relative to CM476; contains none of the i53 mutations (protein)
chain: B1 chain with L2M, L62T, D64S, K66E, P69A, L70V
Fragment of 53BP1; BLI
  affinity for 53BP1 compared with CM1: on par with or slightly better than that of CM1; also recorded: affinity comparable to CM1
[2]
  rate of perfect HDR compared with i53: boost HDR rates to higher levels and at lower concentrations than i53

B4: CM131: base of CM113 plus M1Y, V26I, L73M (protein)
chain: MHHHHHHGGSGYLIFVRMLTGKMIELEVEPSDTIENIKAKIQDHEGIPPDQQRLAFQGKSLEDGRTLSDYNLLIDPKKMPLLRMR
Fragment of 53BP1
  benefit to affinity when added to a base of CM113: notably beneficial

B5: CM135: base of CM113 plus E16M, N25V, Q40E, S49L (protein)
chain: B4 chain with Y12M, E27M, N36V, I37V, Q51E, S60L, M84L
Fragment of 53BP1
  benefit to affinity when added to a base of CM113: notably beneficial

B6: CM134: base of CM113 plus E18M, K48T, E51D, S57G (protein)
chain: B4 chain with Y12M, E29M, I37V, K59T, E62D, S68G, M84L
Fragment of 53BP1
  benefit to affinity when added to a base of CM113: notably beneficial

B7: CM142-DM: CM142 with the DM mutations (P69L, L70V) (protein)
chain: B4 chain with P49L, A55T, S60L, P80L, L81V, R85Q
[1]
  benefit to rate of HDR compared with i53: improved benefit to HDR over i53
